Test results published in the supplement of paper PMC4604168 (melanoma cell lines).
This is one part of the list. Repeats are few or missing, and single values can be far off.

Tests used:
Assay in all cases: cell count relative to DMSO control; melanoma cells; higher = more viable cells
Conditions in all cases: library dose: low library concentration; 72 h
MZ2-MEL = test system: MZ2-MEL
MeWo = test system: MeWo
RPMI7951 = test system: RPMI7951
RVH-421 = test system: RVH-421
SkMel28 = test system: SkMel28
SkMel2 = test system: SkMel2
SkMel30 = test system: SkMel30
SkMel5 = test system: SkMel5
UACC257 = test system: UACC257
UACC62 = test system: UACC62
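Note: cell number obtained by counting DAPI-stained nuclei in high-throughput microscope images with image analysis software, screen run in 1,536-well plates.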

Row | SMILES | cell count (MZ2-MEL) | cell count (MeWo) | cell count (RPMI7951) | cell count (RVH-421) | cell count (SkMel28) | cell count (SkMel2) | cell count (SkMel30) | cell count (SkMel5) | cell count (UACC257) | cell count (UACC62)
1 | C[C@@H](Oc1cc(-c2cnn(C3CCNCC3)c2)cnc1N)c1c(Cl)ccc(F)c1Cl [Crizotinib] + O=C1NC(=O)/C(=C/c2ccc(-c3ccc(F)cc3O)o2)S1 [AS252424] (first compound 0.2 µM, partner dose 1 µM) | 102% | 92.7% | 108% | 128% | 101% | 87.2% | 104% | 96.6% | 116% | 89.7%
2 | CN1CCN(c2ccc3nc(-c4c(N)c5c(F)cccc5[nH]c4=O)[nH]c3c2)CC1 [Dovitinib] + COc1ccc(-c2ccc3c(N4CCOCC4)nc(N4C[C@@H](C)O[C@@H](C)C4)nc3n2)cc1CO [KU0063794] (first compound 0.1 µM, partner dose 0.02 µM) | 97.1% | 101% | 106% | 78.8% | 98.4% | 100% | 84% | 109% | 114% | 98.8%
3 | C=CCNC1=C2C[C@@H](C)C[C@H](OC)[C@H](O)[C@@H](C)/C=C(\C)[C@H](OC(N)=O)[C@@H](OC)/C=C\C=C(/C)C(=O)NC(=CC1=O)C2=O [Tanespimycin] + Cc1cc([N+](=O)[O-])ccc1NS(=O)(=O)c1cc(Cl)ccc1Cl [FH535] (first compound 0.002 µM, partner dose 1 µM) | 99.1% | 95.1% | 88.9% | 101% | 95.5% | 101% | 110% | 84.8% | 98.7% | 89.4%
4 | CN1CCN(c2ccc3nc(-c4c(N)c5c(F)cccc5[nH]c4=O)[nH]c3c2)CC1 [Dovitinib] + c1cc(-c2cnn3cc(-c4ccc(OCCN5CCCCC5)cc4)cnc23)ccn1 [Dorsomorphin] (first compound 0.1 µM, partner dose 0.4 µM) | 103% | 86.8% | 100% | 99.5% | 96.4% | 126% | 54.6% | 81% | 92.3% | 82%
5 | C[C@@H](Oc1cc(-c2cnn(C3CCNCC3)c2)cnc1N)c1c(Cl)ccc(F)c1Cl [Crizotinib] + CN(C)S(=O)(=O)c1ccc2c(c1)/C(=C/c1cc3c([nH]1)CCCC3)C(=O)N2 [SU6656] (first compound 0.2 µM, partner dose 0.4 µM) | 105% | 80.3% | 100% | 102% | 79.1% | 102% | 93.5% | 87.2% | 87.7% | 85.6%
6 | CS(=O)(=O)CCNCc1ccc(-c2ccc3ncnc(Nc4ccc(OCc5cccc(F)c5)c(Cl)c4)c3c2)o1 [lapatinib] + Oc1cc(-c2nc(-c3ccccc3)[nH]c2-c2ccncc2)ccc1Cl [L779450] (first compound 0.8 µM, partner dose 0.2 µM) | 73.3% | 89.7% | 72.9% | 133% | 89% | 99% | 78.4% | 104% | 95.7% | 76.6%
7 | CNC(=O)c1cc(Oc2ccc(NC(=O)Nc3ccc(Cl)c(C(F)(F)F)c3)cc2)ccn1 [sorafenib] + NC(=O)Nc1cc(-c2cccc(F)c2)sc1C(=O)N[C@H]1CCCNC1 [AZD7762] (first compound 0.4 µM, partner dose 0.02 µM) | 105% | 98.4% | 83.4% | 106% | 97.9% | 93.1% | 94% | 107% | 108% | 84.1%
8 | CS(=O)(=O)CCNCc1ccc(-c2ccc3ncnc(Nc4ccc(OCc5cccc(F)c5)c(Cl)c4)c3c2)o1 [lapatinib] + COc1ccc(COc2ccc(Cc3cnc(N)nc3N)cc2OC)cc1 [GW2580] (first compound 0.8 µM, partner dose 1 µM) | 89.9% | 93.7% | 86.2% | 95% | 107% | 98.5% | 86.9% | 103% | 112% | 94.7%
9 | CS(=O)(=O)CCNCc1ccc(-c2ccc3ncnc(Nc4ccc(OCc5cccc(F)c5)c(Cl)c4)c3c2)o1 [lapatinib] + O=C(Nc1ccccc1)c1cc([N+](=O)[O-])ccc1Cl [GW9662] (first compound 0.8 µM, partner dose 2 µM) | 86% | 90.3% | 105% | 103% | 103% | 99.8% | 97.9% | 99.2% | 101% | 101%
10 | CN1CCN(c2ccc3nc(-c4c(N)c5c(F)cccc5[nH]c4=O)[nH]c3c2)CC1 [Dovitinib] + COc1cc(N2CCC(N3CCN(C)CC3)CC2)ccc1Nc1ncc(Cl)c(Nc2ccccc2S(=O)(=O)C(C)C)n1 [NVP-TAE684] (first compound 0.1 µM, partner dose 0.08 µM) | 90.4% | 76.5% | 109% | 98.1% | 81.3% | 95% | 81.7% | 74.5% | 73.8% | 88.7%
11 | CS(=O)(=O)CCNCc1ccc(-c2ccc3ncnc(Nc4ccc(OCc5cccc(F)c5)c(Cl)c4)c3c2)o1 [lapatinib] + Cc1ccc(NC(=O)c2cccc(N(C)C)c2)cc1NC(=O)c1ccc(O)cc1 [ZM336372] (first compound 0.8 µM, partner dose 2 µM) | 73.5% | 92.9% | 74.5% | 99.2% | 89.1% | 99.5% | 74.4% | 91.9% | 89% | 85.8%
12 | CS(=O)(=O)CCNCc1ccc(-c2ccc3ncnc(Nc4ccc(OCc5cccc(F)c5)c(Cl)c4)c3c2)o1 [lapatinib] + COC(=O)c1sccc1S(=O)(=O)Nc1ccc(Nc2ccccc2)cc1OC [GSK0660] (first compound 0.8 µM, partner dose 1 µM) | 94.9% | 84.1% | 99% | 80.9% | 99.7% | 88.2% | 102% | 89.2% | 108% | 103%
13 | CS(=O)(=O)CCNCc1ccc(-c2ccc3ncnc(Nc4ccc(OCc5cccc(F)c5)c(Cl)c4)c3c2)o1 [lapatinib] + CN(NC(=O)CC(=O)NN(C)C(=S)c1ccccc1)C(=S)c1ccccc1 [STA4783] (first compound 0.8 µM, partner dose 0.006 µM) | 107% | 88.2% | 106% | 71.9% | 112% | 75.4% | 98% | 94.3% | 73.4% | 89.4%
14 | C=CCNC1=C2C[C@@H](C)C[C@H](OC)[C@H](O)[C@@H](C)/C=C(\C)[C@H](OC(N)=O)[C@@H](OC)/C=C\C=C(/C)C(=O)NC(=CC1=O)C2=O [Tanespimycin] + Cn1cc(/C=C2\C(=O)Nc3cccnc32)c2ccccc21 [GW441756] (first compound 0.002 µM, partner dose 0.4 µM) | 99.4% | 102% | 82.8% | 98.5% | 86.8% | 122% | 104% | 75.8% | 65.9% | 102%
15 | CNC(=O)c1cc(Oc2ccc(NC(=O)Nc3ccc(Cl)c(C(F)(F)F)c3)cc2)ccn1 [sorafenib] + COc1cc(Nc2ncc(F)c(Nc3ccc4c(n3)NC(=O)C(C)(C)O4)n2)cc(OC)c1OC [Tamatinib] (first compound 0.4 µM, partner dose 0.4 µM) | 93.5% | 91.4% | 67.6% | 121% | 91.7% | 91.2% | 87.7% | 84.9% | 77.7% | 82.2%
16 | CNC(=O)c1cc(Oc2ccc(NC(=O)Nc3ccc(Cl)c(C(F)(F)F)c3)cc2)ccn1 [sorafenib] + c1cc(-c2cnn3cc(-c4ccc(OCCN5CCCCC5)cc4)cnc23)ccn1 [Dorsomorphin] (first compound 0.4 µM, partner dose 0.4 µM) | 99.2% | 92.4% | 76.2% | 83.7% | 109% | 103% | 88.9% | 87.3% | 77.6% | 93.1%
17 | C=CCNC1=C2C[C@@H](C)C[C@H](OC)[C@H](O)[C@@H](C)/C=C(\C)[C@H](OC(N)=O)[C@@H](OC)/C=C\C=C(/C)C(=O)NC(=CC1=O)C2=O [Tanespimycin] + COc1cc(N2CCC(N3CCN(C)CC3)CC2)ccc1Nc1ncc(Cl)c(Nc2ccccc2S(=O)(=O)C(C)C)n1 [NVP-TAE684] (first compound 0.002 µM, partner dose 0.08 µM) | 99.4% | 98.9% | 97.1% | 109% | 110% | 89.3% | 87.4% | 78.8% | 69.8% | 94.5%
18 | CN1CCN(c2ccc3nc(-c4c(N)c5c(F)cccc5[nH]c4=O)[nH]c3c2)CC1 [Dovitinib] + C[C@@H]1CCN(C(=O)CC#N)C[C@@H]1N(C)c1ncnc2[nH]ccc12 [CP690550] (first compound 0.1 µM, partner dose 1 µM) | 90.9% | 92.2% | 106% | 104% | 94.7% | 96.3% | 115% | 94.4% | 105% | 96.5%
19 | CS(=O)(=O)CCNCc1ccc(-c2ccc3ncnc(Nc4ccc(OCc5cccc(F)c5)c(Cl)c4)c3c2)o1 [lapatinib] + Cc1cc(N2CCOCC2)cc2[nH]c(-c3c(NC[C@@H](O)c4cccc(Cl)c4)cc[nH]c3=O)nc12 [BMS536924] (first compound 0.8 µM, partner dose 0.2 µM) | 97.7% | 82.8% | 109% | 114% | 83.6% | 90.7% | 94.7% | 85.2% | 83.1% | 89.3%
